For 5 substances, binding results are on record in publication PMC7904728.

Protein sequences, listed by entry. Tags and fused reporters are not part of them. Lines headed by an entry give the natural chain unless they say otherwise; changes in a name come on top. Chains listed by the source or under a name are the forms on record and can include a tag or linker. Residues count along the entry.
UniProt P35637: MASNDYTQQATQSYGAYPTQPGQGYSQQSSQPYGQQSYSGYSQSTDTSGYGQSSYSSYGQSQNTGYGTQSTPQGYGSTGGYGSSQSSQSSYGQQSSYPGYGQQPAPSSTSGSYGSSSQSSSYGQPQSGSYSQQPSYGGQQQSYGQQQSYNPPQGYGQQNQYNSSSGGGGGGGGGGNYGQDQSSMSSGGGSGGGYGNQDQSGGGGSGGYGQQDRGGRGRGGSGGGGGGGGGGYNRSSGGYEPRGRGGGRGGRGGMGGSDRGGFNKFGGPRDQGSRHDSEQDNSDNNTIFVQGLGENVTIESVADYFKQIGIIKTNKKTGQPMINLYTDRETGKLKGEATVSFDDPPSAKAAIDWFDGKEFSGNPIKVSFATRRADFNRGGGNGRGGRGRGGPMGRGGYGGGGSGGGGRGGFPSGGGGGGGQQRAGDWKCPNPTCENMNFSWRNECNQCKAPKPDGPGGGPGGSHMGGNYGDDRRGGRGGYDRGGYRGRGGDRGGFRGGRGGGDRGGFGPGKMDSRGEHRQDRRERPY
UniProt Q13283: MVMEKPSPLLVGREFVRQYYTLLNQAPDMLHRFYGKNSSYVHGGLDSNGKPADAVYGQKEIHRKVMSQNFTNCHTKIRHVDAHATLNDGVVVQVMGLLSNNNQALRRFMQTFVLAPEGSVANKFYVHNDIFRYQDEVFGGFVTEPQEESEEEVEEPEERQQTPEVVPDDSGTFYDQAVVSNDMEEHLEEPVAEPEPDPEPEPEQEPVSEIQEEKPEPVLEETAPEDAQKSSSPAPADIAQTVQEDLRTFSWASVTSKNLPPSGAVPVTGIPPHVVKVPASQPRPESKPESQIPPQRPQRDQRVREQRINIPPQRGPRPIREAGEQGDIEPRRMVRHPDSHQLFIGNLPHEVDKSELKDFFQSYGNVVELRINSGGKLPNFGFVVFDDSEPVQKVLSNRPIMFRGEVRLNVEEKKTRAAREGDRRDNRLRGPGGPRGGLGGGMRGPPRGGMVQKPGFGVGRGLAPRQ
UniProt Q13148: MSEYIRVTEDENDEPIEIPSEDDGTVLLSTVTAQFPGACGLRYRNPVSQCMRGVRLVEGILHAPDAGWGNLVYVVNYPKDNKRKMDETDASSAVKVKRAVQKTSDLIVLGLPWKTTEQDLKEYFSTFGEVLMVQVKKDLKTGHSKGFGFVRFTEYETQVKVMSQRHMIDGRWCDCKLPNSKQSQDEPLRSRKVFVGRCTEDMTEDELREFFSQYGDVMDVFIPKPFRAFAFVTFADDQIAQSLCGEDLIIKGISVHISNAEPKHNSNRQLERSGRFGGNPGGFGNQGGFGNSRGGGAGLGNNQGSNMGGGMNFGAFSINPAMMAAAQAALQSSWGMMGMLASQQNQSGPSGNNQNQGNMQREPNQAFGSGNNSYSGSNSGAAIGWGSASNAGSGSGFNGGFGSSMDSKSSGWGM
UniProt P67809: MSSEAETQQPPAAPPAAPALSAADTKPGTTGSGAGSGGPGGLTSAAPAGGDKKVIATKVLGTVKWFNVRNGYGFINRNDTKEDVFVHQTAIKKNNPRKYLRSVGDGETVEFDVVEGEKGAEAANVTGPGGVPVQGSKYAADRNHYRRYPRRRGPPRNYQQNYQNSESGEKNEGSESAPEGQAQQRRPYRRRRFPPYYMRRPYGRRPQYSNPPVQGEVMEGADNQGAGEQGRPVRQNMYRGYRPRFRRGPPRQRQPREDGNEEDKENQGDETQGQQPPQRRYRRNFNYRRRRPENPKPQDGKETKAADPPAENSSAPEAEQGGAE
UniProt Q15811: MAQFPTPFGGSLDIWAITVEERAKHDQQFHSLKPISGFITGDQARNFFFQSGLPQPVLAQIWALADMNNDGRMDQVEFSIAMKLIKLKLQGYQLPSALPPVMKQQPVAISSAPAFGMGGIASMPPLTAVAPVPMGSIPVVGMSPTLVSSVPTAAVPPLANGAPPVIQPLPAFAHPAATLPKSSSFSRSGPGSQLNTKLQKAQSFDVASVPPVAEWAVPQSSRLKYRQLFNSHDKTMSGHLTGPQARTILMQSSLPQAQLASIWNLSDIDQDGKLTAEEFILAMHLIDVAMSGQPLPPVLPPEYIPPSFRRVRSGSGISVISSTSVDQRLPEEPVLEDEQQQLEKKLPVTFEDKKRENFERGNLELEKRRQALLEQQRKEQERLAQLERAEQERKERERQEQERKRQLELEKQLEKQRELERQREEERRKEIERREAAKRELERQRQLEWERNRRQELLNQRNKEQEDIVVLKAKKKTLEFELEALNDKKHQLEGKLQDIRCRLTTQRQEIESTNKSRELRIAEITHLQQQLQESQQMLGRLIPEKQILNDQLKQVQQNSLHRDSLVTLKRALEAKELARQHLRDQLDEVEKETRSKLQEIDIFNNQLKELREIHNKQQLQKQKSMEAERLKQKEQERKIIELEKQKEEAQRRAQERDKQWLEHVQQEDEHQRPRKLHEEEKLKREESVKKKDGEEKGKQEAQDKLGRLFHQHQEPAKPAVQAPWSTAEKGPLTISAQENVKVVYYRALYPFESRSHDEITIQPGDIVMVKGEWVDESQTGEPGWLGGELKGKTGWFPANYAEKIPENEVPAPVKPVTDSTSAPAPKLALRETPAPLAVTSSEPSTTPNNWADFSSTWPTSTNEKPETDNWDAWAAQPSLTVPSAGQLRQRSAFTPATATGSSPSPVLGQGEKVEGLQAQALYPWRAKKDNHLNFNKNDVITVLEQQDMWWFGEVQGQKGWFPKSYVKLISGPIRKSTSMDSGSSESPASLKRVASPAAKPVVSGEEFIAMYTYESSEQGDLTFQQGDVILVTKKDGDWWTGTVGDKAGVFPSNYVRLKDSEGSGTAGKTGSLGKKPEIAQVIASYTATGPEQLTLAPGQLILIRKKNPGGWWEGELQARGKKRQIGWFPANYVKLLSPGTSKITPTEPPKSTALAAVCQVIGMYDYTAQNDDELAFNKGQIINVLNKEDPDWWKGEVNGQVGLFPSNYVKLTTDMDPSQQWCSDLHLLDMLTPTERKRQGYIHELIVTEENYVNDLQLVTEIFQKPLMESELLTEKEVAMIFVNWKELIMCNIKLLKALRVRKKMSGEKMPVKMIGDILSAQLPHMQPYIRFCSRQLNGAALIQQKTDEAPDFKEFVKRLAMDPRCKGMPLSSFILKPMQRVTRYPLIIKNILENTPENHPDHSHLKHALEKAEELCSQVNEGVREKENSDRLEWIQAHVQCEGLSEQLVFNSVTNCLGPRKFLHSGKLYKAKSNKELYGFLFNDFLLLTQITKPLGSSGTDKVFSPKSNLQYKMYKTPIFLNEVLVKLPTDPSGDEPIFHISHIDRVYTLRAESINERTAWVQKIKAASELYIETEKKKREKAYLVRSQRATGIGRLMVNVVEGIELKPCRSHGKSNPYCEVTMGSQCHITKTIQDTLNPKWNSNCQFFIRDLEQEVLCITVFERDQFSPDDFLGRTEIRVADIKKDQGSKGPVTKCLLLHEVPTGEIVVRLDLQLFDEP
full-length ITSN1s fused to GFP: residues 1-1220 of Q15811
GFP-fused ITSN1_(CCR-SH3): residues 310-1220 of Q15811
GST-ITSN1SH3: residues 730-1220 of Q15811

No constants are given. Whether binding was seen depends on the method and setting. For some of these results: Binding seen in cells or lysates may run through a third protein. Some binding calls cover weakened binding; strength is not graded here.

Assay [1] deals with FUS used as bait in the microtubule bench (UniProt P35637). Put plainly: microtubule bench assay; HeLa cells co-transfected; bait fused to RFP and the microtubule-binding domain of Tau (MBD) and so held on microtubules, prey fused to GFP; fixed 24 h post transfection; Pearson correlation coefficient of red and green fluorescence along lines crossing microtubules, at least twenty lines from three experiments.

The target of assay [2] is G3BP1 used as bait in the microtubule bench (UniProt Q13283). The assay is described as above.
Assay [3] addresses SAM68-RFP-MBD (UniProt Q07666). The description is as above.
The target in assay [4] is TDP43-RFP-MBD (UniProt Q13148). Described as above.
In assay [5] the target is YB1 used as bait in the microtubule bench (UniProt P67809). Described as above.
Assay [6] deals with endogenous SAM68 (HeLa cells) (human (endogenous in HeLa)) (UniProt Q07666). Kind of assay: proximity ligation; Duolink PLA on fixed, permeabilised HeLa cells with anti-ITSN1 and anti-SAM68 antibodies; endogenous proteins.
Assay [7] concerns the target TDP43-His (human) (UniProt Q13148). Put plainly: pull-down; 1 µg SAM68-His or TDP43-His immobilised on Ni-NTA-agarose in 8 M urea, washed without urea, incubated with 1 µg GST-SRCSH3, GST-ITSN1SH3 or GST in 25 mM Tris-HCl pH 7.4, 150 mM NaCl, 10% glycerol, 1% Triton-X100 at 4 °C for 1 h; Coomassie staining; both purified.

As for “GFP-fused ITSN1SH3 (from UniProt Q15811-2 730-1220) (domain or fragment)”, the binding result in assay [1] was “no binding”; in assay [2], “no binding”; in assay [3], “binds”; in assay [4], “no binding”; in assay [5] it was “no binding”.
Regarding “endogenous ITSN1 (HeLa cells) (from UniProt Q15811 1-1721)”, the binding entry in assay [6] is “binds”.
With “full-length ITSN1s fused to GFP (from UniProt Q15811-2 1-1220)”, the binding result in assay [3] is listed as “binds”; in assay [4], “no binding”.
For “GST-ITSN1SH3 (from UniProt Q15811-2 730-1220) (domain or fragment)”, the binding result in assay [7] is given as “no binding (tested: 1 µg)”.
For the substance “GFP-fused ITSN1_(CCR-SH3) (from UniProt Q15811-2 310-1220) (domain or fragment)”, the binding result in assay [3] is on record as “binds”.
